Source: PubChem BioAssay (NCI)
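Values below derive from 48-hour exposures of cells grown in 96-well plates, with endpoints linearly interpolated between the two concentrations bracketing the appropriate inhibition level. GI50 = concentration required for 50% inhibition of growth.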 Not every entry of the source has a single result; some have several. The other results are left out here. There may be further records. For some of these results: The tests behind the records often covered other concentration ranges, not given here; some values may only mark the edge of a range. Marks in square brackets tell the records apart. The letters are not those of the source and start again with each entry. For some of these results: Results that share an entry repeat one measurement in other runs, samples, wells, individuals or studies.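 TGI marks complete inhibition of growth.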

Key:
Experiment in all cases: NCI tumour cell line growth inhibition, 48 h
MDA-MB-231 breast = tested on: MDA-MB-231 breast
BT-549 breast = tested on: BT-549 breast
MOLT-4 leukemia = tested on: MOLT-4 leukemia
TK-10 renal = tested on: TK-10 renal
MCF7 breast = tested on: MCF7 breast
SK-MEL-5 melanoma = tested on: SK-MEL-5 melanoma
A498 renal = tested on: A498 renal
HOP-62 NSCLC = tested on: HOP-62 NSCLC
UACC-62 melanoma = tested on: UACC-62 melanoma
HT29 colon = tested on: HT29 colon
NCI-H23 lung = tested on: NCI-H23 lung
SNB-19 CNS = tested on: SNB-19 CNS
DU-145 prostate = tested on: DU-145 prostate
OVCAR-5 ovarian = tested on: OVCAR-5 ovarian
NCI-H226 lung = tested on: NCI-H226 lung
SF-295 CNS = tested on: SF-295 CNS
SK-MEL-28 melanoma = tested on: SK-MEL-28 melanoma
COLO 205 colon = tested on: COLO 205 colon
NCI-H460 lung = tested on: NCI-H460 lung
RXF 393 renal = tested on: RXF 393 renal
M14 melanoma = tested on: M14 melanoma
OVCAR-4 ovarian = tested on: OVCAR-4 ovarian
U251 CNS = tested on: U251 CNS
SF-539 CNS = tested on: SF-539 CNS
LOX IMVI melanoma = tested on: LOX IMVI melanoma
SK-MEL-2 melanoma = tested on: SK-MEL-2 melanoma
HCC-2998 colon = tested on: HCC-2998 colon
CAKI-1 renal = tested on: CAKI-1 renal
SR leukemia = tested on: SR leukemia
HCT-116 colon = tested on: HCT-116 colon
ACHN renal = tested on: ACHN renal
SNB-75 CNS = tested on: SNB-75 CNS
HCT-15 colon = tested on: HCT-15 colon
MALME-3M melanoma = tested on: MALME-3M melanoma
OVCAR-8 ovarian = tested on: OVCAR-8 ovarian
UACC-257 melanoma = tested on: UACC-257 melanoma
MDA-MB-435 = tested on: MDA-MB-435
T-47D breast = tested on: T-47D breast
786-0 renal = tested on: 786-0 renal
HL-60(TB) leukemia = tested on: HL-60(TB) leukemia
KM12 colon = tested on: KM12 colon

In the case of `COC1=C(N)C(=O)c2nc(-c3nc(C(=O)O)c(C)c(-c4ccc(OC)c(OC)c4O)c3N)ccc2C1=O`, the GI50 (MDA-MB-231 breast) is reported as 15 nM, 1.12 µM [sample A, 1 test] and 18.9 nM [sample B, mean of 2 tests] and 9.12 nM [sample B, mean of 3 tests], the TGI (MDA-MB-231 breast) is reported as 76.5 nM, 3.33 µM [sample A, 1 test] and 83.5 nM [sample B, mean of 2 tests] and the GI50 (BT-549 breast) is reported as 15.9 nM [sample A, 1 test] and 1.14 nM [sample B, mean of 2 tests]. For the same compound, the TGI (BT-549 breast) was 75.3 nM, 15.4 nM [sample A] and 1.89 nM [sample B], the GI50 (MOLT-4 leukemia) was 4.08 nM [sample A, 1 test] and < 10 nM [sample A, mean of 2 tests] and 1.48 nM [sample B, mean of 2 tests] and 4.82 nM [sample B, mean of 3 tests] and the GI50 (TK-10 renal) was 48.2 nM, 24.3 nM [sample A, 1 test] and 4.03 nM [sample B, mean of 2 tests]. For the same compound, the GI50 (MCF7 breast) was 0.0628 nM [sample A, 1 test] and < 10 nM [sample A, mean of 3 tests] and 0.367 nM [sample B, mean of 2 tests] and 0.283 nM [sample B, mean of 3 tests], the TGI (MCF7 breast) was 12.9 nM [sample A, 1 test] and 22.8 nM [sample A, mean of 3 tests] and 1.43 nM [sample B, mean of 2 tests] and the TGI (SK-MEL-5 melanoma) was 26.6 nM, 12.9 nM [sample A] and 2.56 nM [sample B]. For the same compound, the TGI (A498 renal) was 28.9 nM [sample A] and 2.54 nM [sample B], the GI50 (HOP-62 NSCLC) was 2.23 nM [sample A, 1 test] and < 10 nM [sample A, mean of 3 tests] and 1 nM [sample B, mean of 2 tests] and 1.17 nM [sample B, mean of 3 tests] and the TGI (UACC-62 melanoma) was 13.1 nM [sample A, 1 test] and 14.3 nM [sample A, mean of 3 tests] and 19.2 nM [sample B, 1 test] and 5.6 nM [sample B, mean of 3 tests]. The GI50 (HT29 colon) was 28 nM [sample A, 1 test] and 15.1 nM [sample A, mean of 3 tests] and 12.2 nM [sample B, 1 test] and 7.39 nM [sample B, mean of 2 tests], the GI50 (NCI-H23 lung) was 1.43 nM [sample A, 1 test] and < 10 nM [sample A, mean of 3 tests] and 1.35 nM [sample B, mean of 2 tests] and 1.46 nM [sample B, mean of 3 tests] and the TGI (NCI-H23 lung) was 25.3 nM [sample A, 1 test] and < 10 nM [sample A, mean of 3 tests] and 22.9 nM [sample B, mean of 2 tests] and 8.31 nM [sample B, mean of 3 tests]. The GI50 (SNB-19 CNS) was 6.6 nM [sample A, 1 test] and < 10 nM [sample A, mean of 2 tests] and 1.22 nM [sample B, mean of 2 tests] and 3.41 nM [sample B, mean of 3 tests], the GI50 (DU-145 prostate) was 6.43 nM, < 10 nM [sample A, 1 test] and 2.37 nM [sample B, mean of 2 tests] and 4.62 nM [sample B, mean of 3 tests] and the TGI (OVCAR-5 ovarian) was 36.2 nM [sample A, 1 test] and 79.3 nM [sample A, mean of 3 tests] and 26.7 nM [sample B, 1 test] and 102 nM [sample B, mean of 2 tests]. The TGI (NCI-H226 lung) was 21.9 nM, < 10 nM [sample A] and 2.04 nM [sample B], the GI50 (SF-295 CNS) was 3.61 nM [sample A, 1 test] and < 10 nM [sample A, mean of 3 tests] and 1.22 nM [sample B, mean of 2 tests] and 2.94 nM [sample B, mean of 3 tests] and the GI50 (SK-MEL-28 melanoma) was 14 nM [sample A, 1 test] and < 10.4 nM [sample A, mean of 3 tests] and 10.9 nM [sample B, 1 test] and 1.77 nM [sample B, mean of 2 tests]. For the same compound, the TGI (SK-MEL-28 melanoma) was 62.8 nM [sample A, 1 test] and 24.6 nM [sample A, mean of 3 tests] and 48.8 nM [sample B, 1 test] and 93.8 nM [sample B, mean of 2 tests], the GI50 (COLO 205 colon) was 26.8 nM [sample A, 1 test] and 12.2 nM [sample A, mean of 3 tests] and 20.1 nM [sample B, 1 test] and 2.39 nM [sample B, mean of 2 tests] and the TGI (COLO 205 colon) was 29 nM [sample A, mean of 3 tests] and 106 nM [sample B, 1 test] and 4.83 nM [sample B, mean of 2 tests]. For the same compound, the GI50 (NCI-H460 lung) was 0.537 nM [sample A, 1 test] and < 10 nM [sample A, mean of 3 tests] and 0.474 nM [sample B, mean of 2 tests] and 0.29 nM [sample B, mean of 3 tests], the TGI (NCI-H460 lung) was 15.5 nM [sample A, 1 test] and < 12.6 nM [sample A, mean of 3 tests] and 14.1 nM [sample B, 1 test] and 1.32 nM [sample B, mean of 2 tests] and the GI50 (RXF 393 renal) was 1.38 nM [sample A, 1 test] and < 11.2 nM [sample A, mean of 3 tests] and < 0.1 nM [sample B, 1 test] and 1.29 nM [sample B, mean of 2 tests]. The GI50 (M14 melanoma) was 26.8 nM, < 10 nM [sample A, 1 test] and 22.4 nM [sample B, 1 test] and 3.72 nM [sample B, mean of 3 tests], the TGI (M14 melanoma) was 11.3 nM [sample A, 1 test] and 169 nM [sample B, 1 test] and the GI50 (OVCAR-4 ovarian) was 42.6 nM [sample A, 1 test] and 19.6 nM [sample A, mean of 3 tests] and 16.6 nM [sample B, 1 test] and 3.99 nM [sample B, mean of 2 tests]. The GI50 (U251 CNS) was 0.641 nM [sample A, 1 test] and < 10 nM [sample A, mean of 3 tests] and < 0.1 nM [sample B, 1 test] and 0.403 nM [sample B, mean of 3 tests], the TGI (U251 CNS) was 5.34 nM [sample A, 1 test] and < 10 nM [sample A, mean of 3 tests] and 1.43 nM, 11.4 nM [sample B, 1 test] and 6.03 nM [sample B, mean of 3 tests] and the GI50 (SF-539 CNS) was 2.13 nM [sample A, 1 test] and < 10 nM [sample A, mean of 2 tests] and 11.6 nM [sample B, 1 test] and 1.59 nM [sample B, mean of 3 tests]. For the same compound, the TGI (SF-539 CNS) was 18.4 nM [sample A, 1 test] and < 10 nM [sample A, mean of 2 tests] and 37.2 nM [sample B, 1 test] and 6.58 nM [sample B, mean of 3 tests], the TGI (LOX IMVI melanoma) was 31 nM, 16.5 nM [sample A] and 232 nM [sample B] and the GI50 (SK-MEL-2 melanoma) was 8.97 nM [sample A, 1 test] and < 12.1 nM [sample A, mean of 3 tests] and 18.2 nM [sample B, 1 test] and 5.84 nM [sample B, mean of 3 tests]. The TGI (SK-MEL-2 melanoma) was 25.2 nM [sample A, 1 test] and 23.5 nM [sample A, mean of 3 tests] and 33.7 nM, 22.8 nM [sample B, 1 test] and 8.87 nM [sample B, mean of 3 tests], the TGI (HCC-2998 colon) was 22 nM, 22.4 nM [sample A] and 1.84 nM, 17 nM [sample B] and the GI50 (CAKI-1 renal) was 0.694 nM [sample A, 1 test] and < 10 nM [sample A, mean of 3 tests] and 0.485 nM [sample B, mean of 2 tests] and 1.38 nM [sample B, mean of 3 tests]. For the same compound, the TGI (CAKI-1 renal) was 30.3 nM [sample A, 1 test] and 32.5 nM [sample A, mean of 3 tests] and 1.13 nM [sample B, mean of 2 tests], the GI50 (SR leukemia) was 6.17 nM, < 10 nM [sample A, 1 test] and 3.37 nM, 1.78 nM [sample B, mean of 2 tests] and the TGI (SR leukemia) was < 10 nM [sample A, 1 test] and 78.3 nM [sample B, 1 test] and 449 nM [sample B, mean of 2 tests]. The TGI (HCT-116 colon) was 35.7 nM, 23.2 nM [sample A] and 295 nM, 24.3 nM [sample B], the GI50 (ACHN renal) was 2.32 nM, < 10 nM [sample A, 1 test] and 0.742 nM [sample B, mean of 2 tests] and 1.69 nM [sample B, mean of 3 tests] and the GI50 (SNB-75 CNS) was 1.81 nM [sample A, 1 test] and < 12.5 nM [sample A, mean of 3 tests] and 0.723 nM [sample B, mean of 2 tests] and 1.68 nM [sample B, mean of 3 tests]. For the same compound, the TGI (SNB-75 CNS) was 12.2 nM [sample A, 1 test] and < 22.2 nM [sample A, mean of 3 tests] and 30.3 nM [sample B, 1 test] and 1.78 nM [sample B, mean of 2 tests] and 4.6 nM [sample B, mean of 3 tests], the TGI (HCT-15 colon) was 45.2 nM [sample A, 1 test] and 35.4 nM [sample A, mean of 2 tests] and 3.55 nM [sample B, mean of 2 tests] and the GI50 (MALME-3M melanoma) was 8.52 nM [sample A, 1 test] and < 10 nM [sample A, mean of 3 tests] and 1.13 nM [sample B, mean of 2 tests] and 4.46 nM [sample B, mean of 3 tests]. For the same compound, the TGI (MALME-3M melanoma) was 27.2 nM [sample A, 1 test] and 16 nM [sample A, mean of 3 tests] and 15.3 nM [sample B, 1 test] and 2.88 nM [sample B, mean of 2 tests], the GI50 (OVCAR-8 ovarian) was 4.83 nM [sample A, 1 test] and < 10 nM [sample A, mean of 3 tests] and 1.12 nM [sample B, mean of 2 tests] and 3.73 nM [sample B, mean of 3 tests] and the TGI (UACC-257 melanoma) was 97.1 nM, 28.6 nM [sample A] and 6.3 nM, 28 nM [sample B]. For the same compound, the TGI (MDA-MB-435) was 25.8 nM, 16.6 nM [sample A] and 252 nM [sample B], the GI50 (T-47D breast) was 8.78 nM, < 10 nM [sample A, 1 test] and < 0.1 nM [sample B, 1 test] and 2.97 nM [sample B, mean of 3 tests] and the TGI (T-47D breast) was 61.7 nM, 15.5 nM [sample A, 1 test] and 0.549 nM [sample B, 1 test] and 7.88 nM [sample B, mean of 3 tests]. For the same compound, the GI50 (786-0 renal) was 2.69 nM, < 10 nM [sample A, 1 test] and 1.03 nM [sample B, mean of 2 tests] and 2.85 nM [sample B, mean of 3 tests], the GI50 (HL-60(TB) leukemia) was 3.28 nM [sample A, 1 test] and < 10 nM [sample A, mean of 3 tests] and 1.2 nM [sample B, mean of 2 tests] and 3.27 nM [sample B, mean of 3 tests] and the GI50 (KM12 colon) was 20.1 nM [sample A, 1 test] and 10.1 nM [sample A, mean of 3 tests] and 1.4 nM [sample B, mean of 2 tests]. The TGI (KM12 colon) was 83.1 nM [sample A, 1 test] and 17.8 nM [sample A, mean of 3 tests] and 21 nM [sample B, 1 test] and 2.37 nM [sample B, mean of 2 tests].
